PubChem BioAssay AID488969 (Vanderbilt High Throughput Screening Facility, 2010)
In all, about 110,000 compounds were measured (“z-score”: median about -0.1, highest 2% from about 2 on). This is one part of the list.

biological target: Metabotropic glutamate receptor 8 (Rattus norvegicus) (UniProt P70579); test: rat mGluR8 modulators via GIRK flux, primary screen, cell-based, thallium flux, HTS (AID 488969); details: HEK293 rat mGluR8, GIRK (G protein-gated inwardly rectifying potassium channel) thallium flux, FluoZin2; at 10 µM; stronger effect = higher value; submaximal glutamate (EC20) added with thallium
UniProt P70579, sequence (P70579 whole entry, looked up): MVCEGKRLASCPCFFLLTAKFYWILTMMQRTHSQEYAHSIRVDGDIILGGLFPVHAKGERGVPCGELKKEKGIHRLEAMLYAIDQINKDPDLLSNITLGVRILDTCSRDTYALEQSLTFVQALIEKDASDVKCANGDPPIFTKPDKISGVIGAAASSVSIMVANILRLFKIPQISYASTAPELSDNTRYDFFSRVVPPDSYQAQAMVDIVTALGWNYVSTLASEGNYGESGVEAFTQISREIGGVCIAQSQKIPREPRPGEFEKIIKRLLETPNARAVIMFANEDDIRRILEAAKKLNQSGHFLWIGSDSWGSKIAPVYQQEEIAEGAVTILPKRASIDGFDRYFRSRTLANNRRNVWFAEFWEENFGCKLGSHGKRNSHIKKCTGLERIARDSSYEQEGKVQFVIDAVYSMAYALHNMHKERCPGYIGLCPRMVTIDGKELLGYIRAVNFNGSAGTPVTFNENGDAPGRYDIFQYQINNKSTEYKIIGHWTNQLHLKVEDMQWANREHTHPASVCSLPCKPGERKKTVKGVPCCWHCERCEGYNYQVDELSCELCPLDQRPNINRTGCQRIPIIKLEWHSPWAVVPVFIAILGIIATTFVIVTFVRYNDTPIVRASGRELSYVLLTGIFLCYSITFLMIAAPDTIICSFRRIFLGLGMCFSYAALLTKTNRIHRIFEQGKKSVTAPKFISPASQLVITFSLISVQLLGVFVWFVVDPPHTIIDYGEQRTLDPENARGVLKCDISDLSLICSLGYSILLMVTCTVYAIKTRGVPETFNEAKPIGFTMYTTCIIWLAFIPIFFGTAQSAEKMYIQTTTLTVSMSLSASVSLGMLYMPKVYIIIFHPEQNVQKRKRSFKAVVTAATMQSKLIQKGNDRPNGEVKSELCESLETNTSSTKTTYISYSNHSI

SMILES | z-score
COc1cc(/C=C(\C#N)C(=O)Nc2cc(C(F)(F)F)ccc2Cl)ccc1OCC(=O)Nc1cccc(C(F)(F)F)c1 | -0.0529
COCCNC(=O)/C(C#N)=C/c1cccc(/C=C(\C#N)C(=O)NCCOC)c1 | -0.235
O=C(Nc1cccc(NC(=O)c2ccc(-c3ccc(Br)cc3)o2)c1)c1ccco1 | 0.231
O=C(CSc1nnc(Cc2cccs2)n1C1CCCCC1)N1CCCc2ccccc21 | -0.263
CCn1c(CC(=O)Nc2ccccc2)nnc1SCC(=O)Nc1ccccc1C(=O)OC | -0.437
O=C(COc1ccccc1)NCC(=O)N/N=C/C=C/c1ccccc1 | -0.223
CCCOc1ccc(-c2nn(-c3ccccc3)cc2/C=C2\SC(=S)N(C3CCS(=O)(=O)C3)C2=O)cc1 (stereo not drawn) | 0.0736
CCCNC(=O)C1CN(S(=O)(=O)c2ccccc2)CCN1S(=O)(=O)c1ccccc1 (stereo not drawn) | -0.0722
COc1ccc(S(=O)(=O)N2CCOCC2)cc1NC(=O)c1ccccc1-c1ccc(C(F)(F)F)cc1 | -0.207
c1ccc2c(c1)CCN(Cc1nnnn1Cc1ccc3c(c1)OCO3)C2 | 0.228
O=S(=O)(NCCSCc1c(Cl)cccc1Cl)c1ccc2c(c1)OCCO2 | -0.356
Cc1ccc(NC(=O)c2cnccn2)c(OC(F)F)c1 | 0.143
CC(O)C(=O)N/N=C/c1cccc(Cl)c1Cl (stereo not drawn) | -0.0908
COc1cc(C(=O)NC(=S)NCc2ccco2)cc(OC)c1OC | -0.226
Cc1ccc(C(=O)c2c(NC(=O)c3ccncc3)sc3c2CCCC3)cc1 | -0.431
COCCN(C(=O)c1ccccc1)c1nnc(-c2cccnc2)s1 | -0.0208
O=C(N/N=C/c1ccccc1O)c1cccc(C(F)(F)F)c1 | 0.118
Cc1cc(C(=O)CSc2nnc(-c3ccccc3)o2)c(C)n1CC1COc2ccccc2O1 (stereo not drawn) | 0.112
CNC(=O)Nc1ccccc1F | 0.0432
CN1C=CC=C/C1=C1/SC(=S)N(Cc2ccccc2)C1=O | -0.0538
CN(C(=O)CSc1nc(N)nn1-c1ccccc1)c1ccccc1 | -0.316
CCCCn1c(CCC)nc([N+](=O)[O-])c1Sc1ccc(Cl)cn1 | -0.603
CC1CN(Cc2nc3c(c(=O)n(C)c(=O)n3C)n2CCc2ccccc2)CC(C)O1 (stereo not drawn) | -0.121
O=C(CSCc1cccc(CSCC(=O)Nc2ccc3ccccc3c2)n1)Nc1ccc2ccccc2c1 | 0.244
Cc1cccc(N(NC(=O)C(C)(C)O)C(=O)c2ccccc2)c1 | -0.167
COC(=O)C1=CN(C(C)C)C=C(C(=O)OC)C1c1cccc(OC)c1 | 0.115
O=C(Nc1ccc(C(F)(F)F)cc1)C1CC(=O)N(c2ccc3c(c2)OCCO3)C1 (stereo not drawn) | -0.396
O=C(CCN1C(=O)c2ccccc2C1=O)Nc1sc2c(c1C(=O)NCc1ccco1)CCCC2 | -0.456
